Test results from the supplement of paper PMC12217912.
The list shows a part of the results. The full chains were built here from the parent and the listed change. Values near 0.05 are background.

B1: TEV protease; numbered along this chain (parent)
chain: MGESLFKGPRDYNPISSSICHLTNESDGHTTSLYGIGFGPFIITNKHLFRRNNGTLVVQSLHGVFKVKDTTTLQQHLVDGRDMIIIRMPKDFPPFPQKLKFREPQREERICLVTTNFQTKSMSSMVSDTSCTFPSGDGIFWKHWIQTKDGQCGSPLVSTRDGFIVGIHSASNFTNTNNYFTSVPKNFMELLTNQEAQQWVSGWRLNADSVLWGGHKVFMVKPEEPFQPVKEATQL

Variants of: B1
Experiment: raw area under fraction-flipped curve 0-4 h after induction (AUC4h, not background-subtracted), DNA-recorder readout of cleavage of the substrate (dimensionless); higher = more cleavage of the substrate by the protease variant
Details: temperature: 34 °C; time window: 0-4 h after rhamnose induction
Procedure: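 In vivo DNA recorder in E. coli TOP10(DE3) ΔrhaA at 34 °C. Each TEVp single-site mutant (parent TEVp 0) is paired with a single-site variant of the 7-mer TEVs (canonical ENLYFQ|S). The substrate sits between flexible linkers in a Bxb1-sfGFP-TEVs-SsrA fusion, so cleavage stabilises Bxb1 and speeds flipping of a recombination array, read by NGS. The value is the raw area under the fraction-flipped curve over 0-4 h after rhamnose induction (AUC4h), with ≥20 reads per time point. It is not background-subtracted; inactive controls average about 0.047.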
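Note: Bxb1 expression induced with 0.2% (w/v) L-rhamnose at OD600 near 0.5, cultures sampled hourly, flipped fraction per protease–substrate barcode pair counted by paired-end Illumina sequencing.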

Row | Variant | area with substrate ENAYFQS | area with substrate ENCYFQS | area with substrate ENDYFQS | area with substrate ENHYFQS | area with substrate ENIYFQS | area with substrate ENMYFQS | area with substrate ENQYFQS | area with substrate ENRYFQS | area with substrate ENSYFQS | area with substrate ENVYFQS
1 | T233Y | 0.062 | 0.0901 | 0.0603 | 0.0608 | 0.0707 | 0.0929 | 0.0629 | 0.059 | 0.0628 | 0.0708
2 | E103M | 0.0642 | 0.0634 | 0.0641 | 0.0638 | 0.121 |  | 0.0569 | 0.0564 | 0.0752 | 0.0723
3 | N172P | 0.0667 |  | 0.0636 |  |  |  | 0.0812 |  | 0.0663 | 0.0605
4 | S201Q | 0.0674 |  |  |  | 0.0765 |  |  |  |  | 0.0885
5 | F101S | 0.0479 | 0.0857 | 0.05 |  |  |  |  | 0.0653 | 0.066 | 
6 | L235F | 0.0691 | 0.0674 |  |  |  |  |  | 0.0563 | 0.0456 | 0.0683
7 | L235P | 0.0496 | 0.0812 | 0.0414 |  |  | 0.0843 |  | 0.0613 |  | 0.0787
8 | C131H | 0.0572 | 0.0851 | 0.0587 |  |  |  |  |  |  | 
9 | N116W | 0.0466 |  | 0.0696 | 0.071 |  |  |  |  | 0.0721 | 
10 | F92N | 0.0629 | 0.0566 |  |  |  |  | 0.0453 |  | 0.0444 | 0.0807
11 | W199S | 0.0899 |  | 0.0379 | 0.0689 |  |  | 0.0609 |  | 0.0639 | 
12 | K90A | 0.0696 |  |  | 0.0707 |  |  |  |  |  | 
13 | F163S | 0.0433 |  | 0.0496 |  |  | 0.0517 | 0.0567 |  |  | 
14 | K98R | 0.0631 | 0.0821 |  | 0.0783 |  |  | 0.0623 | 0.0607 | 0.0573 | 0.0712
15 | L99E | 0.06 |  | 0.0831 |  |  |  |  |  | 0.0692 | 0.0579
16 | N178R | 0.0749 |  |  | 0.0519 |  |  | 0.0327 | 0.0507 | 0.0694 | 0.0698
17 | D27E | 0.0672 | 0.0623 | 0.0668 | 0.0514 |  |  |  |  | 0.0655 | 
18 | I84V | 0.0659 |  | 0.0527 | 0.061 |  | 0.0806 |  | 0.0593 | 0.0478 | 0.0889
19 | E3D | 0.0637 |  | 0.061 | 0.0545 |  | 0.0611 | 0.052 |  | 0.0468 | 

Row | Variant | area with substrate ENAYFQS | area with substrate ENCYFQS | area with substrate ENDYFQS | area with substrate ENHYFQS | area with substrate ENIYFQS | area with substrate ENMYFQS | area with substrate ENQYFQS | area with substrate ENRYFQS | area with substrate ENSYFQS | area with substrate ENVYFQS
20 | F218V | 0.0372 | 0.0686 | 0.065 |  |  |  | 0.0563 | 0.0631 | 0.0698 | 
21 | P89A | 0.0744 |  | 0.0801 | 0.0606 |  |  | 0.071 |  | 0.0476 | 
22 | S209N | 0.0598 | 0.0625 | 0.049 | 0.0605 |  | 0.0835 | 0.07 | 0.0522 | 0.0467 | 0.0726
23 | S171Y | 0.0704 | 0.0666 | 0.0728 |  |  | 0.0632 | 0.0953 |  |  | 0.0612
24 | E189L | 0.0625 |  | 0.0559 | 0.0628 | 0.119 | 0.0714 | 0.0601 |  | 0.064 | 
25 | E189Y | 0.0492 |  |  | 0.0476 |  | 0.0811 |  |  | 0.0624 | 
26 | F187G | 0.0697 |  | 0.0414 | 0.0785 |  |  | 0.0544 | 0.0642 |  | 0.0263
27 | T119S | 0.0645 |  | 0.0645 |  |  |  |  | 0.0899 | 0.0643 | 
28 | N206R | 0.0621 |  | 0.0682 | 0.0569 | 0.112 |  | 0.064 | 0.0594 | 0.053 | 
29 | G153L | 0.0395 | 0.0628 |  | 0.0506 | 0.0375 | 0.0835 | 0.0441 | 0.0731 | 0.0499 | 0.0617
30 | F6T | 0.056 |  |  |  |  |  | 0.0618 |  | 0.0752 | 
31 | F6N | 0.0464 | 0.069 | 0.0629 |  |  |  | 0.0609 | 0.0609 |  | 
32 | R204D | 0.0503 |  | 0.0729 | 0.0653 |  | 0.0773 | 0.0648 | 0.0886 | 0.0719 | 0.105
33 | R109T | 0.0553 | 0.0566 | 0.0662 | 0.0632 |  |  | 0.0635 | 0.0506 | 0.0593 | 
34 | G2Y | 0.0497 | 0.0752 |  | 0.0432 | 0.17 | 0.108 |  |  |  | 0.103
35 | Q194C | 0.0906 | 0.0649 | 0.0995 | 0.0714 | 0.12 |  | 0.0593 |  | 0.0549 | 0.0806
36 | Q74P | 0.0432 |  |  | 0.0604 |  | 0.0858 | 0.0582 |  |  | 
37 | T129D | 0.0614 |  | 0.076 | 0.0694 |  | 0.0815 | 0.0586 | 0.0439 | 0.0528 | 

Same assay, conditions: temperature: 34 °C; time window: 0-4 h after rhamnose induction

Row | Variant | area with substrate ENEYFQS | area with substrate ENFYFQS | area with substrate ENGYFQS | area with substrate ENNYFQS | area with substrate ENTYFQS | area with substrate ENWYFQS | area with substrate ENKYFQS | area with substrate ENPYFQS | area with substrate ENYYFQS
38 | E103M | 0.0608 | 0.0802 | 0.0501 | 0.0516 | 0.0565 | 0.035 |  |  | 
39 | N172P | 0.0666 |  | 0.0706 |  |  | 0.0073 | 0.0568 |  | 
40 | S201Q |  |  | 0.0521 | 0.0686 |  |  |  |  | 
41 | F101S |  | 0.0284 |  |  |  |  | 0.0348 |  | 
42 | L235F | 0.0536 |  |  |  |  |  |  |  | 
43 | L235P | 0.0694 |  |  | 0.0668 |  | 0.0386 |  | 0.0462 | 0.0523
44 | N116W |  |  |  | 0.0582 | 0.0786 |  | 0.0509 |  | 
45 | F92N |  |  | 0.0491 | 0.0471 | 0.0548 |  |  | 0.0587 | 0.0717
46 | W199S | 0.0722 |  |  | 0.0553 | 0.0637 |  |  |  | 
47 | K90A | 0.0617 |  |  |  | 0.0428 |  |  |  | 
48 | F163S |  | 0.0644 |  |  |  |  |  |  | 
49 | K98R | 0.0568 | 0.062 |  | 0.0641 | 0.0622 |  | 0.0447 |  | 
50 | L99E |  | 0.0514 |  | 0.061 |  |  | 0.0687 |  | 
51 | N178R | 0.0393 |  |  |  |  |  |  |  | 0.0892
52 | D27E | 0.0711 |  | 0.0335 |  | 0.0545 |  |  |  | 
53 | I84V | 0.0527 |  |  |  |  |  |  |  | 0.0572
54 | E3D | 0.0641 | 0.0721 |  | 0.0568 | 0.0629 |  | 0.0682 |  | 
55 | F218V | 0.0698 |  |  |  | 0.0622 | 0.0674 |  |  | 

Row | Variant | area with substrate ENEYFQS | area with substrate ENFYFQS | area with substrate ENGYFQS | area with substrate ENNYFQS | area with substrate ENTYFQS | area with substrate ENWYFQS | area with substrate ENKYFQS | area with substrate ENPYFQS | area with substrate ENYYFQS
56 | P89A | 0.0517 |  |  |  |  |  |  |  | 
57 | S209N | 0.0701 | 0.0676 | 0.0564 |  | 0.0407 | 0.0549 |  |  | 
58 | S171Y | 0.0592 |  |  | 0.0441 | 0.0581 | 0.0346 |  | 0.0638 | 0.0571
59 | E189L | 0.0633 | 0.0556 | 0.0543 |  | 0.0543 |  |  | 0.058 | 
60 | E189Y | 0.0562 |  |  |  |  |  | 0.0562 |  | 
61 | F187G | 0.0548 | 0.062 | 0.0465 | 0.0543 | 0.0559 |  | 0.0441 | 0.0512 | 0.0427
62 | T119S |  | 0.0587 |  |  |  |  |  | 0.056 | 
63 | N206R | 0.05 | 0.0564 | 0.0505 | 0.0604 |  | 0.003 | 0.0625 |  | 
64 | G153L | 0.0536 |  | 0.0547 | 0.0508 | 0.0514 |  |  |  | 0.038
65 | F6T | 0.0793 |  |  |  | 0.0715 |  |  |  | 
66 | F6N |  |  | 0.0375 |  |  |  |  |  | 
67 | R204D |  | 0.0453 | 0.0523 | 0.0663 | 0.0594 |  |  |  | 
68 | R109T | 0.0643 | 0.0535 |  | 0.102 | 0.0414 |  |  | 0.0462 | 
69 | G2Y | 0.0569 |  |  |  | 0.0728 |  |  |  | 
70 | Q194C | 0.0603 |  |  | 0.0472 | 0.0513 |  | 0.0583 | 0.0711 | 
71 | Q74P |  |  | 0.0647 | 0.0616 |  |  | 0.0552 |  | 
72 | T129D | 0.0561 |  | 0.0637 |  | 0.0533 |  | 0.0664 |  | 
